From PubChem BioAssay AID1508642 (National Center for Advancing Translational Sciences (NCATS), 2021)
The whole screen tested about 43,000 compounds, of which about 200 (0.47%) were called active. Inconclusive results (about 12%) are left out. Calls come from the whole dose curve; as a rule, active = well fitted cell-killing curve with a large enough effect; inconclusive = small, poorly fitted or top-dose-only effect, or effect the other way; inactive = flat fitted curve, though single readings scatter. The list shows a part of the results.

Test: Cell viability qHTS assay in S16 Pmp22-F2sN cells; note: nearly all actives have a fitted effect of over 65% in size
Conditions: S16 Pmp22-F2sN Schwann cells (luciferase reporters placed in the Pmp22 gene) viability, CellTiter-Glo, 24 h; series mostly up to 57.5 µM; activity change, negative = cytotoxicity: at the top concentration
How it was run: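 Luminescence from CellTiter-Glo, read by CCD camera after a 15 min room-temperature incubation, served as the viability signal. Reporter Schwann cells (S16 Pmp22-F2sN) had been treated with pin-transferred compounds for 24 h at 37C.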
% is set by controls: 0 for no effect and ±100 for the full control effect.

| Compound | activity change, negative = cytotoxicity |
| --- | --- |
| CCc1cccc(NC(=O)CSc2n[nH]c(-c3ccccc3Cl)n2)c1 | inactive: 6.03% |
| O=C(Nc1ccc2nc(SCCOc3ccccc3Cl)sc2c1)c1ccco1 | inactive: 22.1% |
| CCOC(=O)C1CCCN(C(=O)Cn2ncc3c(C)n(Cc4ccc(F)cc4)c(C)c3c2=O)C1 (configuration not stated) | inactive: -13.9% |
| CCCNC(=O)Cn1ncc2c3ccccc3n(CCC)c2c1=O | inactive: 5.54% |
| COc1ccc2sc(N(Cc3cccnc3)C(=O)C3COc4ccccc4O3)nc2c1 (configuration not stated) | inactive: 1.52% |
| O=S(=O)(c1ccccc1)c1nnn2c1nc(N1CCN(c3ccccc3)CC1)c1cc(Cl)ccc12 | inactive: 5.47% |
| CCOC(=O)/C(C#N)=C/c1ccc(-c2ccccc2)o1 | inactive: 14.3% |
| Cn1c(=O)c2nc3ccc(NC(=O)C(F)(F)F)cc3nc2n(C)c1=O | inactive: 13.4% |
| Cc1ccc2c(c1)C(c1ccccc1)N(C(=O)c1ccc(S(=O)(=O)N3CCCC3)cc1)CC(=O)N2 (configuration not stated) | inactive: -23.7% |
| COc1ccc2sc(N(Cc3cccnc3)C(=O)c3cccs3)nc2c1 | inactive: -29.4% |
| Cc1nc(SCc2ccccc2Cl)c(C#N)c(C)c1C | inactive: -12% |
| Cc1cc(C)cc(NC(=O)c2sc3nc4n(c(=O)c3c2C)N=C(c2ccc(F)cc2)CS4)c1 | inactive: 0.977% |
| CCCn1cc(S(=O)(=O)c2ccccc2)c(=O)c2cc(F)c(N3CCCCCC3)cc21 | inactive: -23.3% |
| O=C(Cn1cc2c(n1)CCCC2)Nc1cc(C(F)(F)F)ccc1Cl | inactive: -4.3% |
| COC(=O)c1ccccc1NC(=O)CCC(=O)N1CC(C)Sc2ccccc21 (configuration not stated) | inactive: -3.31% |
| COC(=O)C(NC(=O)CCc1c(C)nc2cc(-c3cccc(F)c3)nn2c1C)C(C)C (configuration not stated) | inactive: 13.6% |
| Cc1ccc2c(=O)cc(C(=O)Nc3ccc(S(=O)(=O)N4CCCCC4)cc3)oc2c1 | inactive: -1.19% |
| COc1ccc(NC(=O)Cn2c(SCc3ccc(F)cc3)nc3cccnc32)c(OC)c1 | inactive: -24.1% |
| COc1cccc(N2CCN(C(=O)c3cc4c(=O)n(Cc5cccnc5)ccc4nc3C)CC2)c1 | inactive: 4.5% |
| CCOc1ccc(C(=O)Nc2nc(-c3ccc(Br)cc3)ns2)cc1 | inactive: 1.06% |
| Cc1ccc(NC(=O)CSc2cn(CC(=O)N3CCOCC3)c3ccccc23)cc1Cl | inactive: -22.5% |

| Compound | activity change, negative = cytotoxicity |
| --- | --- |
| CCC(Cc1ccccc1)NC(=O)CCS(=O)(=O)c1cc2c(cc1Cl)NC(=O)CO2 (configuration not stated) | inactive: 0.786% |
| COc1ccc(NC(=O)C2CCCN(c3cnccn3)C2)c(OC)c1 (configuration not stated) | inactive: 15.4% |
| COc1ccccc1N1CCN(C(c2ccc(Cl)cc2)c2nnc(-c3cccc(F)c3)o2)CC1 (configuration not stated) | inactive: -16.3% |
| O=C(Nc1ccc(Cl)c(-c2nc3ccccc3o2)c1)c1ccc(-c2cccc([N+](=O)[O-])c2)o1 | inactive: 27.3% |
| CCOc1ccc(NC(=O)Cn2cc(C(=O)c3ccc(OC)cc3)c(=O)c3cc4c(cc32)OCO4)cc1 | inactive: 25.7% |
| COc1ccccc1CNC(=O)c1cnc(N(C)C)nc1 | inactive: -0.429% |
| CCCSc1oc(-c2ccco2)nc1S(=O)(=O)c1ccc(Cl)cc1 | inactive: -1.05% |
| CCCCOC(=O)c1ccc(OC(=O)c2sc3ncn(Cc4ccccc4Cl)c(=O)c3c2C)cc1 | inactive: -6.04% |
| COc1ccccc1OCc1nnc(-c2ccccc2)o1 | inactive: 7.38% |
| O=C(CSc1nc(=O)n(Cc2ccco2)c2c1CCC2)Nc1cccc(F)c1 | inactive: 4.48% |
| CCOc1ccc(CNCCCSc2nnnn2C)cc1OC | inactive: -2.01% |
| COc1cccc(CNC(=O)Cc2csc3nc(-c4ccccc4)cn23)c1 | inactive: -3.68% |
| Cc1ccc(Cl)cc1Nc1sc(C(=O)c2ccc(F)cc2)c(N)c1S(C)(=O)=O | inactive: -8.66% |
| COc1cc(N2C(=O)CSC23C(=O)N(Cc2cccc(F)c2)c2ccccc23)cc(OC)c1OC (configuration not stated) | inactive: -2.66% |
| CCN(CC)CCNC(=O)CN1C(=O)COc2ccc(S(=O)(=O)N3CCOCC3)cc21 | inactive: -2.58% |
| CCOC(=O)Cn1c(=O)n(CC2CCCO2)c2nc(-c3ccc(OCC)cc3)nc(C(N)=O)c21 (configuration not stated) | inactive: 13.1% |
| Cc1cc(Nc2cccc(Cl)c2)nc2ccc(NC(=O)Cc3ccc(Cl)cc3)cc12 | inactive: 9.23% |
| Cc1ccc(-n2ncc(C(=O)NCc3ccccc3)c2C2CCN(C(=O)OC(C)(C)C)CC2)cc1 | inactive: -16.2% |
| CCOc1ccccc1NC(=O)Cn1c(=O)n(Cc2ccccc2)c(=O)c2c1c1cc(C)ccc1n2C | inactive: 2.42% |
| COc1ccc(CCNC(=O)CN2C(=O)COc3ccc(C)cc32)cc1OC | inactive: -4.71% |
| CCN(C(=O)Cn1nc(Cc2ccncc2)c2ccccc2c1=O)c1cccc(Cl)c1 | inactive: 17.3% |

| Compound | activity change, negative = cytotoxicity |
| --- | --- |
| COc1ccccc1N(CC(=O)N1CCC(C)CC1)S(=O)(=O)c1ccc(C)cc1 | inactive: 8.34% |
| CCCCN(CC)CCCNC(=O)CN1C(=O)CSc2ccc(S(=O)(=O)N3CCOCC3)cc21 | inactive: 16.3% |
| Cc1ccc(C(=O)NCc2ccc3c(c2)CCN3C(=O)c2ccc(C)cc2)cc1 | inactive: 9.53% |
| CCn1nc(C)c(CCN(C)C(=O)Nc2ccc(C)c(Cl)c2)c1C | inactive: 5.86% |
| COCCCNC(=O)c1c(-c2ccccc2)c(-c2ccccc2)nn(C)c1=O | inactive: 2.08% |
| COc1cc(NC(=O)c2nn(C)c3c2CS(=O)(=O)c2ccccc2-3)cc(OC)c1 | inactive: -5.41% |
| O=C(Nc1ccc2nc3n(c(=O)c2c1)CCCCC3)C(=O)Nc1ccccc1F | inactive: 20.1% |
| CCc1ccc(Cn2c(CNS(=O)(=O)c3ccc([N+](=O)[O-])cc3)nc3cccnc32)cc1 | inactive: -19.2% |
| Cc1cccc(Nc2nn3c(=O)c4cc5c(cc4nc3s2)OCO5)c1 | inactive: 11.2% |
| O=C(Nc1ccc(F)cc1F)c1cccc2c1C(=O)N(C1CCCCC1)C2 | inactive: 9.84% |
| Cc1cccc(CSc2nc3c(c(=O)[nH]2)CCC3)c1 | inactive: 1.52% |
| COCCNc1ccc(-c2nc(-c3ccncc3)no2)cc1[N+](=O)[O-] | inactive: -2.78% |
| COc1cc(NC(=O)CSc2nc(-c3cccs3)cc(C(F)(F)F)n2)cc(OC)c1OC | inactive: 1.49% |
| COc1cccc(-n2c(SCC(=O)N3CCc4ccccc43)nc3c([nH]c4ccccc43)c2=O)c1 | inactive: 17.7% |
| CCS(=O)(=O)N1CCc2cc(C(=O)N3CCN(c4ccc(OC)cc4)CC3)ccc21 | inactive: 0.243% |
| COc1ccc(OC)c(S(=O)(=O)N2Cc3ccccc3CC2C(=O)Nc2ccc(C)cc2C)c1 (configuration not stated) | inactive: 2.34% |
| COc1ccc(-c2nc(SCC(=O)Nc3ccccc3)c(-c3ccc(F)cc3)[nH]2)cc1OC | inactive: -22.1% |
| CCc1ccc(C2CC(=O)c3c([nH]c(C(=O)OC4CCC(C)CC4)c3C)C2)cc1 (configuration not stated) | inactive: 16.1% |
| CNC(=O)c1ccc2nc(CCc3ccccc3)oc2c1 | inactive: 0.292% |
| COc1ccc(S(=O)(=O)NCc2cccn2Cc2cccc(C)c2)cc1Cl | inactive: -24.6% |
